In the supplement of paper PMC11125491:
± gives the standard deviation of the averaged measurements. Growth of baker's yeast expressing single-residue variants of Pneumocystis jirovecii dihydrofolate reductase in 8.8 or 44 µM methotrexate (about 75% and 90% inhibition of the wild type). Selection coefficient per generation; 0 = like wild type, above 0 = less sensitive, below 0 = more sensitive or loss of function. No active / inactive call per row; the paper calls resistant above 0.220 (8.8 µM) or 0.243 (44 µM) together with a significance test. At 44 µM about 15% of codons end with one read or none, so the lowest values are floors (replicate rank correlation 0.74; 0.94 at 8.8 µM).

B1: UniProt A0EPZ9; numbered along this chain (parent)
chain: MDWQKSLTLIVALTLSRGIGLKNDLPWKLKSDMMFFSRVTSGLLVTRSTGQMNVVLMGRKTWESLPAHSRPLKNRINVVISRQEVLDLGGGAYHARSLDDALALLSQIYDSTSKIQLNRVFVIGGGELCKAAMEHSRLNRIIATVIHNEVDCDVFFPIDFRSSQSCLPWRKQDHSVLEAWVGSKVPQGKINENGFIYEFEMWIRDI

Variants of: B1
Experiment: selection coefficient against synonymous wild-type codons (log2 per generation); higher = faster growth than wild type
Conditions: with Saccharomyces cerevisiae carrying the variant on a plasmid
Method: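 Pooled growth of yeast carrying single-residue variants of P. jirovecii dihydrofolate reductase (own DFR1 gene intact), two passages at 30 °C, three cultures, sequenced before and after. Codons with under 15 starting reads are left out; codons of one change are averaged.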

Variant	selection coefficient against synonymous wild-type codons (log2) (methotrexate 8.8 µM)	selection coefficient against synonymous wild-type codons (log2) (methotrexate 44 µM)
L13R	0.537 ± 0.089	0.588 ± 0.11
L117A	-0.126 ± 0.021	-0.108 ± 0.088
L117N	-0.146 ± 0.045	-0.106 ± 0.055
R161W	-0.0765 ± 0.034	-0.173 ± 0.03
V122W	-0.671 ± 0.15	-0.342 ± 0.05
K171M	-0.194 ± 0.085	-0.153 ± 0.093
L56H	-0.371 ± 0.038	-0.123 ± 0.039
L56S	-0.497 ± 0.15	-0.273 ± 0.13
I80Y	-0.635 ± 0.041	-0.132 ± 0.08
A131D	-0.183 ± 0.079	-0.238 ± 0.088
E149D	0.0287 ± 0.034	0.0616 ± 0.063
E149W	-0.281 ± 0.074	-0.401 ± 0.12
E84Q	-0.105 ± 0.005	-0.0907 ± 0.18
H68I	-0.179 ± 0.15	-0.124 ± 0.0071
R75C	-0.0968 ± 0.059	0.085 ± 0.017
L43R	0.108 ± 0.053	0.0659 ± 0.079
M201S	0.0398 ± 0.071	-0.0401 ± 0.11
D173N	-0.155 ± 0.079	-0.152 ± 0.15
F155C	0.18 ± 0.06	0.115 ± 0.08
V11W	0.0891 ± 0.048	0.221 ± 0.036
V11Y	0.692 ± 0.055	0.831 ± 0.022
E192T	0.0184 ± 0.048	-0.0321 ± 0.15
T46P	0.102 ± 0.032	0.0866 ± 0.062
G20L	-0.493 ± 0.14	-0.209 ± 0.14
C152G	0.478 ± 0.033	0.542 ± 0.028
S16M	-0.29 ± 0.022	-0.268 ± 0.063
W180V	0.0806 ± 0.07	-0.08 ± 0.051

Variant	selection coefficient against synonymous wild-type codons (log2) (methotrexate 8.8 µM)	selection coefficient against synonymous wild-type codons (log2) (methotrexate 44 µM)
L21T	0.19 ± 0.03	0.146 ± 0.13
S163T	-0.0356 ± 0.039	-0.0447 ± 0.061
S163G	-0.0304 ± 0.048	-0.0659 ± 0.062
R59D	-0.0892 ± 0.029	0.145 ± 0.1
R59W	0.000946 ± 0.067	0.044 ± 0.073
R59Y	0.0761 ± 0.016	0.0724 ± 0.066
N77P	-0.303 ± 0.11	-0.158 ± 0.058
N77Y	-0.556 ± 0.019	-0.328 ± 0.034
A101T	-0.372 ± 0.39	-0.0304 ± 0.22
A101W	-0.827 ± 0.088	-0.409 ± 0.071
L88D	-0.495 ± 0.046	-0.314 ± 0.047
A179N	0.0539 ± 0.024	-0.0563 ± 0.12
Q172V	-0.0849 ± 0.03	-0.174 ± 0.17
Q172G	-0.0801 ± 0.039	0.00771 ± 0.11
G91E	0.162 ± 0.035	0.237 ± 0.041
G91C	-0.0303 ± 0.011	0.0315 ± 0.053
I123R	-0.705 ± 0.096	-0.239 ± 0.076
M33H	0.969 ± 0.025	1.26 ± 0.018
N139E	-0.0587 ± 0.04	-0.0852 ± 0.057
N74Q	-0.35 ± 0.017	-0.33 ± 0.043
K130Y	-0.336 ± 0.13	-0.113 ± 0.05
L167A	0.0172 ± 0.057	-0.0879 ± 0.14
T61Q	0.14 ± 0.016	0.27 ± 0.034
S37Y	-0.19 ± 0.081	-0.0469 ± 0.087
K114A	-0.062 ± 0.051	-0.0209 ± 0.17
N53F	-0.396 ± 0.15	-0.247 ± 0.049
N53W	-0.414 ± 0.27	-0.243 ± 0.15
